This is one part of the list.
These sequences were tested on PfSIP2 AP2 domain 1 (GST-tagged) (assay: gcPBM binding intensity (ln(normalized median fluorescence intensity)); higher = stronger DNA binding).
In short: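 Binding of GST-tagged P. falciparum DNA-binding domains, expressed in E. coli and used at about 25 μg on average, was carried out for 1 h in 1× PBS containing 1% milk, 0.2 mg/ml BSA, 0.5% salmon testes DNA and 0.03% Triton X-100. The target was an Agilent 4 × 180k array of primer-extended double-stranded 36-bp intergenic genomic probes plus negative controls, read with Alexa488 anti-GST antibody at 488 nm. Binding intensity is the highest Masliner-normalised natural-log median intensity across replicate spots of either probe orientation.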
“ACATATGGCACATATGTACACACGTATAGATAATAT [CACACA_site2024]” was tested, and the “gcPBM binding intensity (ln)” value was 7.19.
With “CTAAAAAAATAATAAAGTACACAAACGAATATATAA [XGTACX_site668]” the “gcPBM binding intensity (ln)” value was 7.48.
With “CTTTTTTGGTACATCACACATTTTTACATTCCCTTT [CACACA_site4957]” the “gcPBM binding intensity (ln)” value was 7.3.
“TTTTTTTTTTTTTTTGCACACTATATTTAATATAAG [CACACA_site2444]” was tested, and the “gcPBM binding intensity (ln)” value was 7.73.
For “CCATATTTAATAAAATGTACTCATTCTTTTATTTTA [XGTACX_site7802]”, the “gcPBM binding intensity (ln)” value was 7.11.
“TTAATAGTGGAAATATGTACATAATTTTGGTCTTTT [XGTACX_site1664]” was tested, and the “gcPBM binding intensity (ln)” value was 6.86.
With “CTGTTCAAAATATGAACACACACATATATATATATA [CACACA_site8638]” the “gcPBM binding intensity (ln)” value was 9.04.
“TAATTACACTTTAAAAGTACATATATAATAACATTA [XGTACX_site379]” was tested, and the “gcPBM binding intensity (ln)” value was 7.04.
With “CAAACAATTAAACAAACACACATATACATGTATATA [CACACA_site2060]” the “gcPBM binding intensity (ln)” value was 6.87.
“AAAATAAGCCATATACGTACATACATATATAAATAT [XGTACX_site4197]” was tested, and the “gcPBM binding intensity (ln)” value was 7.46.
“TTTTTTATGTTCAATTGTACATATACATATATATAT [XGTACX_site6013]” was tested, and the “gcPBM binding intensity (ln)” value was 8.54.
“TTCATATTTCATATATGTACTTATGTTCAATATAGT [XGTACX_site3811]” was tested, and the “gcPBM binding intensity (ln)” value was 7.13.
For “GATTTAATAGATACGAGTACAGAAATTGTATACATA [XGTACX_site7563]”, the “gcPBM binding intensity (ln)” value was 7.21.
In the case of “TACATATTTTTCTTTTCACACATGGAAAAAAAAGGT [CACACA_site5146]”, the “gcPBM binding intensity (ln)” value is reported as 7.07.
In the case of “TATTAATTCATTTTTTTTTTTTTTTTTTTTTTTTTT [CACACA_negctrl_site1215]”, the “gcPBM binding intensity (ln)” value is reported as 8.55.
In the case of “ATATATATATATATATATATATATATATATAAGTGG [XGTACX_negctrl_site90]”, the “gcPBM binding intensity (ln)” value is reported as 9.1.
For “CCCTTAATTTAAAACACACAAACAAATAAGTTAGTT [CACACA_site3793]”, the “gcPBM binding intensity (ln)” value was 6.97.
With “TATTTTTTTTTTCACTGTACATACAACAACAAATAT [XGTACX_site8835]” the “gcPBM binding intensity (ln)” value was 7.27.
In the case of “AATATATTTATTATAACACACACATATATATATTAT [CACACA_site8264]”, the “gcPBM binding intensity (ln)” value is reported as 7.1.
For “TTATATGTTTTGTGTACACAATTTATTAAATTAATA [CACACA_site5645]”, the “gcPBM binding intensity (ln)” value was 7.53.
With “ATAGGAAAAAGTATTGGTACACATACATATACGTTA [XGTACX_site5819]” the “gcPBM binding intensity (ln)” value was 6.92.
In the case of “TATATATTTTTTTCATGTACATATAAATTAATTAAA [XGTACX_site8680]”, the “gcPBM binding intensity (ln)” value is reported as 7.3.
For “ACACAAAAAATTAAGTGTACTCATCAAGAAAAAAAA [XGTACX_site3456]”, the “gcPBM binding intensity (ln)” value was 7.38.
With “ATAAAATACCCTGATCTATTACATATTATATTCTGC [GTGCAC_negctrl_site311]” the “gcPBM binding intensity (ln)” value was 6.71.

— the supplement of paper PMC11417369
